From PMC11335210 come the findings set out here.

By UniProt entry, the sequences of proteins in these tests, tags left out.
UniProt Q6PDN3: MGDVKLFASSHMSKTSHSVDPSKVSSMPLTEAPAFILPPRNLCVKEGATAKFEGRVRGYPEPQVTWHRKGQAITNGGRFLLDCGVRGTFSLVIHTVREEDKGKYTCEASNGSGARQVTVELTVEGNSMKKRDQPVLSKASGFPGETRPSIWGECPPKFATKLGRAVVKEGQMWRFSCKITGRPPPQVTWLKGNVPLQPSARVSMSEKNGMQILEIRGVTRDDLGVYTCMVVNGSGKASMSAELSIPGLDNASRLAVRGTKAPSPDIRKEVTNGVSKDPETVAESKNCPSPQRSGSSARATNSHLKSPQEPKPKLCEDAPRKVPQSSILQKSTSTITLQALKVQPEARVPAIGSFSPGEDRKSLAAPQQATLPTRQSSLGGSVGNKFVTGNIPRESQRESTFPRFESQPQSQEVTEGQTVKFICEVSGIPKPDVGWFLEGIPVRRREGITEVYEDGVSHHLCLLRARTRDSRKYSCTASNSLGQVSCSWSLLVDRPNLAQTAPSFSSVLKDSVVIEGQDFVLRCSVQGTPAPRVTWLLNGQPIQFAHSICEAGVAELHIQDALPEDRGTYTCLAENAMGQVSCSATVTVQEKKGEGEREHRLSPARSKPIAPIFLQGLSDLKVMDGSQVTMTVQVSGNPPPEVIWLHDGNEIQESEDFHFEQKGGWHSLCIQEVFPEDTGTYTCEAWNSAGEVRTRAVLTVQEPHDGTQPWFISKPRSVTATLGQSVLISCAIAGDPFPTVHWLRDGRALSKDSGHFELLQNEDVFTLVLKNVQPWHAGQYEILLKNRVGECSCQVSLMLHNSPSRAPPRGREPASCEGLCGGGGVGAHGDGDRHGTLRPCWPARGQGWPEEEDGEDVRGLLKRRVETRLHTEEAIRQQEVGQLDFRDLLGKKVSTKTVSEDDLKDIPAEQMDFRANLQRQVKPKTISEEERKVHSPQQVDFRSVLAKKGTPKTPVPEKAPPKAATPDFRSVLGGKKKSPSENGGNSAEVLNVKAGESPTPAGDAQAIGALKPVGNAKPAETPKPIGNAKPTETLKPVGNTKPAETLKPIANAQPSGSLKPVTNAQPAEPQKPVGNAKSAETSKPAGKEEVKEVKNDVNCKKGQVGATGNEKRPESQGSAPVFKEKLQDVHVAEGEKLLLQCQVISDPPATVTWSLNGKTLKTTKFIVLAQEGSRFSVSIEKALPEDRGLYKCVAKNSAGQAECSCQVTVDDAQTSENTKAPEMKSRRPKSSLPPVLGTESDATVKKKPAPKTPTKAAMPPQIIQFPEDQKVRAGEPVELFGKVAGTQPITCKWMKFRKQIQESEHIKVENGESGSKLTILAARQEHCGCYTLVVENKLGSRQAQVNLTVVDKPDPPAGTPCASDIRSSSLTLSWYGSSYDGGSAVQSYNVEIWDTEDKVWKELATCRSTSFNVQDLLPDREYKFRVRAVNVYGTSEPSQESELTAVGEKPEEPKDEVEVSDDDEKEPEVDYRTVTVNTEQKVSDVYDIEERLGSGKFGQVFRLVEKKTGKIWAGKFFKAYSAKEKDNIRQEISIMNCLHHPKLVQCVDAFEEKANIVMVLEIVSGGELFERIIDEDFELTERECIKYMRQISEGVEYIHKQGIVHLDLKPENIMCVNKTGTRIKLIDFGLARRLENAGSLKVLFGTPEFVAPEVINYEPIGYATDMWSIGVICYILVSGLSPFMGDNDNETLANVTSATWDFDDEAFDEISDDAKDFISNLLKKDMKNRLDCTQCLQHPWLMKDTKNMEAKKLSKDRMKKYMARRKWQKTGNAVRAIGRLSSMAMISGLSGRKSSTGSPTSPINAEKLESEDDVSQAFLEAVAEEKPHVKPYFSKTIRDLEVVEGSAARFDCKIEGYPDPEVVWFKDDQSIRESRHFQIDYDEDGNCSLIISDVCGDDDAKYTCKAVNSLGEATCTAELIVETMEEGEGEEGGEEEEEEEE
UniProt P70336: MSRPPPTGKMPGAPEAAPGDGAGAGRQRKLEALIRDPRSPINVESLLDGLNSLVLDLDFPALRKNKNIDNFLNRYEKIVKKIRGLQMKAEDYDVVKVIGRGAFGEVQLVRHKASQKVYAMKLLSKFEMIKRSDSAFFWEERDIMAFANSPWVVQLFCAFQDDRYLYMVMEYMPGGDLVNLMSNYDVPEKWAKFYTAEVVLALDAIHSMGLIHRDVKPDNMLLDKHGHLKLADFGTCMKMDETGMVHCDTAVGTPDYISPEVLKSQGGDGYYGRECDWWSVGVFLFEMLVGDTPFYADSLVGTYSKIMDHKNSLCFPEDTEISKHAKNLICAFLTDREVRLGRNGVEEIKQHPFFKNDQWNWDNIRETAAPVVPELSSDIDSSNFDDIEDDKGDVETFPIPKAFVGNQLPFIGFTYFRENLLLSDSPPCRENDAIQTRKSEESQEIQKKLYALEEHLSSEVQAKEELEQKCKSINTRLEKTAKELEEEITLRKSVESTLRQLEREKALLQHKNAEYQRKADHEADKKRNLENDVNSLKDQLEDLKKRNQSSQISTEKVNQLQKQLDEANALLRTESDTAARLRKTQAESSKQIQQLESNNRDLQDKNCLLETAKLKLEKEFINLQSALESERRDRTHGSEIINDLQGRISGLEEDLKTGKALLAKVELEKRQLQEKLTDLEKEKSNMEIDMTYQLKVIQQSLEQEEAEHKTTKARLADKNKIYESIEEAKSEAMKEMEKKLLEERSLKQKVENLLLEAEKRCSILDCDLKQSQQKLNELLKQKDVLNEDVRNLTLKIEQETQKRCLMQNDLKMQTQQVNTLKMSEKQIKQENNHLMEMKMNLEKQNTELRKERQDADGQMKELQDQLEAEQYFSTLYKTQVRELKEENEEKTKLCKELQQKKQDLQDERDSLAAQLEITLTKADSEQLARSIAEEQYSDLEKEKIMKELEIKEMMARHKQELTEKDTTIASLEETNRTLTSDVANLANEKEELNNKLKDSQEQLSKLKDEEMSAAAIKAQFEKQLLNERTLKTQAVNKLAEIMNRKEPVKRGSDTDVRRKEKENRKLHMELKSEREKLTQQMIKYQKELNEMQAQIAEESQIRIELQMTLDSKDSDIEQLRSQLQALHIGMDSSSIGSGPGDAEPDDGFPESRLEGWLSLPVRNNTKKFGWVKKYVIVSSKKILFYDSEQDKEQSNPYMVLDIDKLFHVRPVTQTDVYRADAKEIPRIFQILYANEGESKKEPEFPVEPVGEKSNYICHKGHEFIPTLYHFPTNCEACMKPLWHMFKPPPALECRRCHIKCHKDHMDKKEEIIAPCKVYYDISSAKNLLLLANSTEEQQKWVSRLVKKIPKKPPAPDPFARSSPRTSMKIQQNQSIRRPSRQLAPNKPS

No constants are given. Whether binding was seen depends on the method and setting. In cells and extracts the contact can be indirect. Some entries that bind do so weakly or less than the wild type. For some of these results: Where a sequence is shown, tags or fusion partners need not be part of it.

Assay [1] has as its target T1, Plakophilin 4 (PKP4), endogenous in mouse keratinocytes (mouse (endogenous in mouse keratinocytes)) (UniProt Q68FH0).
T1 sequence: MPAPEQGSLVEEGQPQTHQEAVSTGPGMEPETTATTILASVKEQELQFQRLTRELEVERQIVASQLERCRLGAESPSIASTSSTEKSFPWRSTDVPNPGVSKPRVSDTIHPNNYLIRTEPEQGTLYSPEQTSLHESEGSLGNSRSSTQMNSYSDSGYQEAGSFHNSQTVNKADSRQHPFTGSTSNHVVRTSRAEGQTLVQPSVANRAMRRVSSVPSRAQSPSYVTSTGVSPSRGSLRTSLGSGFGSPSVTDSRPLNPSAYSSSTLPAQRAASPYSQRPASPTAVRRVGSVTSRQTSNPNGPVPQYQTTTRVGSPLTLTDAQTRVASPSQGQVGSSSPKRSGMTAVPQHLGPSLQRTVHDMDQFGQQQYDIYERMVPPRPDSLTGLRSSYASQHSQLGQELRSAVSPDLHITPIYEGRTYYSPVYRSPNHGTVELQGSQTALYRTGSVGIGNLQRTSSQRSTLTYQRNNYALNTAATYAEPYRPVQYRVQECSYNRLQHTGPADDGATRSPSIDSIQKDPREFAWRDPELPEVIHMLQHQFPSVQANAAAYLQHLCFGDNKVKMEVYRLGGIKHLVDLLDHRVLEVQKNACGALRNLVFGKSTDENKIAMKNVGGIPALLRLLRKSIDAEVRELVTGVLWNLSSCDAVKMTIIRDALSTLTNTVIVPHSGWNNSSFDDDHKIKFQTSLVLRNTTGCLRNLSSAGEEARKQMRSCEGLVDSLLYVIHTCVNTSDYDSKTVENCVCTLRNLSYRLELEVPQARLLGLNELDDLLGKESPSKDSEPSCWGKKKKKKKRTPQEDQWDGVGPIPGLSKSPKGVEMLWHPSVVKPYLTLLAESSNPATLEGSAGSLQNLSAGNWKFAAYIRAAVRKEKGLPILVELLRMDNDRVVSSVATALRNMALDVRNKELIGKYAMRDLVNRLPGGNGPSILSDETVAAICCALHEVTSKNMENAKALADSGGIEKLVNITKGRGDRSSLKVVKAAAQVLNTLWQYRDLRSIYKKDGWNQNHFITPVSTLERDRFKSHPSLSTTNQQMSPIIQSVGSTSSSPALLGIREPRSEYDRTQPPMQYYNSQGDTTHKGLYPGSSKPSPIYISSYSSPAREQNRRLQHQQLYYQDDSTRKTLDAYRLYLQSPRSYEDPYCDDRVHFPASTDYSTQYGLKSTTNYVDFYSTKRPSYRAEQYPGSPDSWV
The assay is described as follows: co-IP; anti-PKP4 antibody and Protein A agarose on lysates of WT keratinocytes, PKP4-KO cells in parallel as control; IP buffer 20 mM Tris-HCl pH 7.5, 137 mM NaCl, 2 mM EDTA, 10% glycerol, 1% NP-40; overnight at 4 °C; western blot.

The target in assay [2] is T2, human PKP4 N-terminally tagged with EGFP (EGFP-PKP4-WT) (human) (UniProt Q99569).
T2 sequence: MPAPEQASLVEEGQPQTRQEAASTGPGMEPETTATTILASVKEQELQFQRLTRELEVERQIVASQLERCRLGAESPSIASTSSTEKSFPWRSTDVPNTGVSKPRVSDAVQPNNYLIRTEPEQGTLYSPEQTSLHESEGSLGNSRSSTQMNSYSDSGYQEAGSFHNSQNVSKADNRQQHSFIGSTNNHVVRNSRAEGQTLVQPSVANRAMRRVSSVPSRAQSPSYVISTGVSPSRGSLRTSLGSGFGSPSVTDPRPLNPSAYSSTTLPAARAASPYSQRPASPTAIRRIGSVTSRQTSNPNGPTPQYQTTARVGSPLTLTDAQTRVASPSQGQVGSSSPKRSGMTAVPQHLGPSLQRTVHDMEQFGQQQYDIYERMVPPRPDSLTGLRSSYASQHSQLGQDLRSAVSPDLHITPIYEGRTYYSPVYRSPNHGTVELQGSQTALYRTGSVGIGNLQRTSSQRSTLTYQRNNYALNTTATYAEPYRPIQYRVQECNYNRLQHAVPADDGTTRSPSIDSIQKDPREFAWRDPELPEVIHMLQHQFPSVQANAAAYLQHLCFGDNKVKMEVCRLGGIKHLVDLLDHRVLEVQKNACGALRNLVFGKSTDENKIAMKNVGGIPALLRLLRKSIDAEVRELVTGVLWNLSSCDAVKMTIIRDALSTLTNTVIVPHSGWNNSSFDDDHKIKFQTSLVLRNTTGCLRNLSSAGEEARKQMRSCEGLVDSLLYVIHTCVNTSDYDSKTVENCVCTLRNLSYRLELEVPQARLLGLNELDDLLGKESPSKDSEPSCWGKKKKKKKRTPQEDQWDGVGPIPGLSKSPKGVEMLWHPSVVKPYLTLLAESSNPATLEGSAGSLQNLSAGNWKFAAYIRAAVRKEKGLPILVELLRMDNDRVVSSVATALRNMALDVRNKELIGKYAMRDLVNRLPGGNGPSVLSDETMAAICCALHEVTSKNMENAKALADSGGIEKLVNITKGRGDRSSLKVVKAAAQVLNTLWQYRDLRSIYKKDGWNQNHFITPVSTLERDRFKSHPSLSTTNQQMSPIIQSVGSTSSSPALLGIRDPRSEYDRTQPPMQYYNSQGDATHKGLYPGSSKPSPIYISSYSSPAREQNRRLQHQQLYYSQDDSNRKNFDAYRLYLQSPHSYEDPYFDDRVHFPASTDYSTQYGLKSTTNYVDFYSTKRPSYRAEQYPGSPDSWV
The assay is described as follows: co-IP; GFP-Trap Agarose on lysates of PKP4-KO + GFP-PKP4 (Rescue) keratinocytes, WT + GFP cells as control; IP buffer 20 mM Tris-HCl pH 7.5, 137 mM NaCl, 2 mM EDTA, 10% glycerol, 1% NP-40; 1 h at 4 °C; western blot.

As to “myosin light chain kinase (MLCK) (from UniProt Q6PDN3 1-1941) (enzyme)”, the binding result in assay [1] and in assay [2] was “binds” each time.

For “ROCK2 (from UniProt P70336 1-1388) (enzyme)”, the binding entry in assay [1] and in assay [2] was “binds” in each case.
